Drawing on the RNAGym collection of RNA variant scans (doi:10.7554/elife.90254), this text covers self-cleavage for 21 variants.

The source gives no read counts; variants with many changes may rest on few reads.

B1: OR4K15 (parent)
chain: GUUAACGGUCAUAGGCCAUGGAAACUAGGAGCACCAUUUCGCUGCCAGUGAAGAAAUGAACAAAGAAAAUCUGGGCCAGGCAGGCAUCAAAAGAAAUAGUCUUGCGCUCAACCAGAAAGUCUGUAAUCAUUUUAAGGGUA

Variants of B1 are the subject of the data set. The experiment in a line: self-cleavage, relative activity (ratio to wild type); higher = more cleavage; in vitro, sequencing; the parent is a self-cleaving ribozyme.
GUUAACGGUCAUAGGCCAUGGGAACUAGGAGCACCAUUUCGCUGCCGGUGAAGAAAUGAGCAAAGAAAAUCUGGGCCAGGCAGGCAUCAAAAGAAAUAGUCUUGCGCUCAACCAGAAAGUCUGUAAUCAUUUUAAGGGUG [A22G A47G A60G A140G]: the self-cleavage turned out to be 0.48.
As to GUUAACGGUCAUAGGCCAUGGGAACUAGGAGCACCAUUUCGCUGCCUGUGAAGAAAUGAACAAAGAAAAUCUGGGCCAGGCAGGCAUCAAAAGAGAUAGUCUUGCGCUCAACCAGAAAGUCUGUAAUCAUUUUAAGGGUA [A22G A47U A95G], the self-cleavage was determined as 1.02.
GUUAACGGUCAUAGGCCAUGGGAACUAGGAGCACCAUUUCGCUGCCGGUGAAGAAAUGAACAAAGAAAAUCUGGGCCAGGCAGGCAUCAAAAGAAAUAGUCUUGCGCUCAGCCAGAAAGUCUGUAAUCAUUUUAAGGGUA [A22G A47G A111G]: the self-cleavage stood at 0.06.
For the variant GUUAACGGUCAUAGGCCAUGGGAACUAGGAGCACCAUUUCGCUGCCAGUGUAGAAAUGAACAAAGAGAAUCUGGGCCAGGCAGGCAACAAAAGAAAUAGUCUUGCGCUCAACCAGAAAGUCUGUAGUCAUUUUAAGGGUA [A22G A51U A67G U87A A126G], the self-cleavage came out at 1.02.
As for GUUAACGGUCAUAGGCCAUGGGAACUAGGAGCACCAUUUCGCUGCCAGUGGAGAAAUGAACAAAGAAAAUCUGGGCCAGGCAGGCAUCAAAAGAAAUAGUCUUGCGCUCAACCAGAAAGUCUGUAAUCAUUUUAAGGGCA [A22G A51G U139C], the self-cleavage was determined as 1.04.
As to GUUAACGGUCAUAGGCCAUGGGAACUAGGAGCACCAUUUCGCUGCCAGUGAGGAAAUGAACAAAGAAAAUCUGGGCCAGGCAGGCAUCAAAAGAAACAGUCUUGCGCUCAACCAGAAUGUCUGUAGUCAUUUUAAGGGUA [A22G A52G U97C A118U A126G], the self-cleavage was found to be 0.43.
As to GUUAACGGUCAUAGGCCAUGGGAACUAGGAGCACCAUUUCGCUGCCAGUGAAGAGAUGAACAAAGAAAAUCUGGGCCUGGCAGGCAUCAAAAGAAAUAGUCUUGCGCUCAACCAGAAAGUCUGUAAUCAUUUUAAGGGUA [A22G A55G A78U], the self-cleavage was 0.19.
With GUUAACGGUCAUAGGCCAUGGGAACUAGGAGCACCAUUUCGCUGCCAGUGGAGAAAUGAACAAAGAAAAUCUGGGCCAGGCAGGCAUCAAAAGAAAUAGCCUUGCGCUCAACCAGAAAGUCUGUAAUCAUUUUAAGGGUA [A22G A51G U100C], the self-cleavage was found to be 1.81.
As for GUUAACGGUCAUAGGCCAUGGGAACUAGGAGCACCAUUUCGCUGCCAGUGAAGAGAUGAACAAAGAAAAUCUGGGCCAGGCAGGCAUCAAGAGAAAUAGUCUUGCGCCCUACCAGAAAGUCUGUAAUCAUUCUAAGGGUA [A22G A55G A91G U108C A110U U132C], the self-cleavage is 0.01.
The same measure for GUUAACGGUCAUAGGCCAUGGGAACUAGGAGCACCAUUUCGCUGCCAGUGGAGAAAUGAGCAAAGAAAAUCCGGGCCAGGCAGGCAUCAAAAGAAAUAGUCUUGCGCUCAACCAGAAAGUCUGUAAUCAUUUUAAGGGUA [A22G A51G A60G U72C]: 0.42.
Take GUUAACGGUCAUAGGCCAUGGGAACUAGGAGCACCAUUUCGCUGCCAGUGAGGAAAUGAACAAAGAAAAUCUGGGCCAGGCAGGCAUCAAAAGAAAUAGUCUUGCGCUCACCCAGAAAGUCUGUAAUCAUUUUAAGGGUA [A22G A52G A111C]: the self-cleavage was 0.05.
Regarding GUUAACGGUCAUAGGCCAUGGGAACUAGGAGCACCAUUUCGCUGCCAGUGAGGAAAUGAACAAAGAAAAUCUGGGCCAGGCGGGCAUCAAAAGAAAUAGUCUUGCGCUCAACCAGAAAGUCUGUAAUCAUUUUAAGGGUA [A22G A52G A82G], the self-cleavage came out at 0.47.
As to GUUAACGGUCAUAGGCCAUGGGAACUAGGAGCACCAUUUCGCUGCCAGUGAAGGAAUGAACAAAGAAAAUCUGGGCCAGGCAGGCAUCAAAAGAAAUAGUCUUGCGCUCAACCGGAAAGUCUGUAAUCAUUUUAGGGGUA [A22G A54G A114G A135G], the self-cleavage was found to be 0.39.
Consider GUUAACGGUCAUAGGCCAUGGGAACUAGGAGCACCAUUUCGCUGCCAGUGAAGAGAUGAACAAAGAAAAUCUGGGCCAGGCAGGCAUCAAAAGAACUAGUCUUGCGCUCAACCAGAAAGUCUGUAAUCAUUUUAAGGGUA [A22G A55G A96C], for which the self-cleavage is 0.56.
On to GUUAACGGUCAUAGGCCAUGGGAACUAGGAGCACCAUUUCGCUGCCAGUGAAGAGAUGAACAAAGAAAAUCUGGGCCAGGCAGGCAUCAAGAGAAAUAGUCUUGCGCUCAACCAGAAAGUCCGUAAUCAUUUUAAGGGUA [A22G A55G A91G U122C], for which the self-cleavage is 0.88.
In the case of GUUAACGGUCAUAGGCCAUGGGAACUAGGAGCACCAUUUCGCUGCCAGUGAGGAAAUGAACGAAGAAAAUCUGGGCCAGGCAGGCAUCAAAAGAAAUAGUCCUGCGCUCAACCAGAAAGUCUGUAAUCAUUUUAAGGGUA [A22G A52G A62G U102C], the self-cleavage came to 1.43.
For GUUAACGGUCAUAGGCCAUGGGAACUAGGAGCACCAUUUCGCUGCCGGUGAAGAAAUGAACAAAGAAAAUCCGGGCCAGGCAGGCAUCAAAGGAAAUAGUCUUGCGCUCAACCAGAAAGUCUGUAAUCAUUUUAGGGGUA [A22G A47G U72C A92G A135G], the self-cleavage stood at 0.1.
With GUUAACGGUCAUAGGCCAUGGGAACUAGGAGCACCAUUUCGCUGCCUGUGAAGAAAUGAACAAAGAAAAUCUGGGCCAGGCAGGCAUCAAAAGAAAUAGUCUUGCGCUCAACUAGAAAGUCUGUAAUCAUUUUAGGGGUA [A22G A47U C113U A135G], the self-cleavage amounted to 0.04.
Consider GUUAACGGUCAUAGGCCAUGGGAACUAGGAGCACCAUUUCGCUGCCAGUGGAGAAAUGAACAAAGAAAAUCUGGGCCAGGCAGGCAUCAAAAGAAAUAGUCUUGCGCUCGACCAGAAAGUCUGUAGUCAUUUUAAGGGUA [A22G A51G A110G A126G], for which the self-cleavage amounted to 0.07.
Consider GUUAACGGUCAUAGGCCAUGGGAACUAGGAGCACCAUUUCGCUGCCAGUGAGGAAAUGAACAAAGAAAGUCUGGGCCAGGCAGGCAUCAAGAGAAAUAGUCUUGCGCUCAACCAGAAAGUCUGUAAUCAUUCUAAGGGUA [A22G A52G A69G A91G U132C], for which the self-cleavage was found to be 0.67.
For GUUAACGGUCAUAGGCCAUGGGAACUAGGAGCACCAUUUCGCUGCCAGUGGAGAAAUGAACAGAGAAAAUCUGGGCCAGGCAGGCAUCAAAAGAAAUAGUCUUGCGCUCAACCAGAAAGUCUGUAAUCAUUUUAAGGGUA [A22G A51G A63G], the self-cleavage stood at 1.3.
